The campaign covered roughly 410,000 compounds. About 6,400 (1.6%) were called active. The inconclusive results got no clear call from the source; some entries with a clear call stand among them for comparison. The call rests on the fitted dose curve; in most records, active means well fitted inhibition curve with a large enough effect; inconclusive means small, poorly fitted or top-dose-only effect; inactive means no such curve, though single readings can be large or run the other way. No potency is given beside an inconclusive call; the fits are too rough.
What follows are compounds tested against Glucagon-like peptide 1 receptor (Homo sapiens) (UniProt P43220) (assay: qHTS of GLP-1 Receptor Inverse Agonists (Inhibition Mode)). Details: HEK293 GLP-1R CRE-luciferase, luminescence, 24 h, GLP-1R form is constitutively active; activity change, negative = inhibition: at 38.3 µM (top of the series) unless noted.
Chain of UniProt P43220 (P43220 whole entry, looked up): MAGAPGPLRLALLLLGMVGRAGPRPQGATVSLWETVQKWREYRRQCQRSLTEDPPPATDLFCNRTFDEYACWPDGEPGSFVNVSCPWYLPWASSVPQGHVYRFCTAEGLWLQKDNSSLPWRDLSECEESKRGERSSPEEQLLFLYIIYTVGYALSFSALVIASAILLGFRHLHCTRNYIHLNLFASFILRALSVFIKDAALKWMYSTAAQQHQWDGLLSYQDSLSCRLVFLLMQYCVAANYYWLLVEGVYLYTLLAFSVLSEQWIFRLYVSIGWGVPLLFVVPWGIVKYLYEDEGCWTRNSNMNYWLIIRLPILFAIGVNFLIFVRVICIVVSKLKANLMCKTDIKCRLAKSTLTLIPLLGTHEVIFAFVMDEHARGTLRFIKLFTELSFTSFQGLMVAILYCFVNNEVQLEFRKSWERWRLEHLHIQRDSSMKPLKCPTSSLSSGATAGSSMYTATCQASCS
Outline: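 Stable HEK293 clone (constitutively active GLP-1R + cAMP-response luciferase); 200 cells/uL plated, 12 h pre-culture, compound 24 hr, 37 deg C/5% CO2; detection reagent 12 min RT; luminescence.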
In the case of `CO[C@@H]1CN(C)C(=O)c2ccc(NC(=O)C3CCC3)cc2OC[C@H](C)N(CC2CCCCC2)C[C@H]1C`, the Potency is reported as inconclusive [inhibitor, single point]. In the case of `Cc1cc(C)cc(NC(=O)Nc2ccc(NC(=O)c3ccccc3O)cc2)c1`, the Potency is reported as inconclusive [inhibitor, full curve, poor fit]. `Cc1ccccc1S(=O)(=O)Nc1ncnc2scc(-c3ccccc3)c12` was tested, and the Potency was inconclusive [inhibitor, single point]. With `CCN(CC)S(=O)(=O)c1cc(C(=O)OCC(=O)NC2CCCc3ccccc32)ccc1C` (centres undefined) the Potency was inconclusive [inhibitor, single point]. In the case of `CCN(CC)S(=O)(=O)c1ccc(NN=C2CCN(C(C)C)CC2)c([N+](=O)[O-])c1`, the Potency is reported as inconclusive [inhibitor, partial curve, poor fit]. With `O=S(=O)(c1ccccc1)c1nc(-c2cccs2)oc1N1CCCCC1` the “activity change, negative = inhibition” value was inactive: -0.209%. With `O=C1C2C3C=CC(C3)C2C(=O)N1/N=C/c1cn(Cc2ccc(F)cc2)c2ccccc12` (centres undefined) the Potency was inconclusive [inhibitor, partial curve, poor fit]. With `Cc1ccc(Nc2nc(NCc3ccccc3)nc3ccsc23)c(C)c1` the Potency was inconclusive [inhibitor, partial curve, poor fit]. For `CC(NC(=O)c1ccc(CSc2nc3ccncc3n2Cc2ccc(F)cc2)cc1)c1ccccc1` (centres undefined), the Potency was inconclusive [inhibitor, single point]. `Cc1nc2ccccc2cc1C(=O)N/N=C/c1cccs1` was tested, and the “activity change, negative = inhibition” value was inactive: 16.9%. In the case of `CC(=O)C1=CCC(c2ccccc2)N(Cc2ccccc2)C1` (centres undefined), the Potency is reported as inconclusive [inhibitor, partial curve, poor fit]. `O=C1/C(=C/c2cccs2)SC(=S)N1CCCC(=O)N(CCO)c1ccccc1` was tested, and the Potency was inconclusive [inhibitor, partial curve, poor fit]. In the case of `CC(C)Cn1c(=O)c2c(nc3n2CC(C)CN3Cc2ccccc2)n(C)c1=O` (centres undefined), the Potency is reported as inconclusive [inhibitor, partial curve, poor fit]. `CC(C)(C)NCC(O)COCc1ccc(Cl)cc1` (centres undefined) was tested, and the Potency was inconclusive [inhibitor, full curve, poor fit]. In the case of `CCOC(=O)c1ccc(-n2c(CCC(=O)O)ccc2-c2ccc(F)cc2)cc1`, the Potency is reported as inconclusive [inhibitor, single point]. `Nc1cccc(-c2nc3ccccc3s2)c1` was tested, and the Potency was inconclusive [inhibitor, single point]. In the case of `CC(C)NC(=O)Cn1ccc2cc(S(=O)(=O)N3CCCCCC3)ccc21`, the “activity change, negative = inhibition” value is reported as inactive: -17.5%. For `Cn1c(CO)c(-c2ccccc2)c2cc([N+](=O)[O-])ccc21`, the Potency was inconclusive [inhibitor, partial curve, poor fit]. For `O=C(Nc1ccccc1)Nc1cccc2cccnc12`, the Potency was active: 10 µM. In the case of `COc1ccc(S(=O)(=O)Nc2ccc3c(c2)OCO3)cc1Cl`, the Potency is reported as inconclusive [inhibitor, partial curve]. `O=C(c1ccc(CS(=O)c2ccccc2Cl)o1)N1CCN(c2cccc(C(F)(F)F)c2)CC1` (centres undefined) was tested, and the Potency was inconclusive [inhibitor, full curve, poor fit]. In the case of `Cc1cc(C(=O)COC(=O)Cc2n[nH]c(=O)c3ccccc23)c(C)n1-c1ccc2c(c1)OCO2`, the Potency is reported as inconclusive [inhibitor, full curve, poor fit]. With `CC(C)(C)C(=O)NC(NC(=S)Nc1ccc(S(N)(=O)=O)cc1)C(Cl)(Cl)Cl` (centres undefined) the Potency was inconclusive [inhibitor, partial curve, poor fit]. For `COc1ccccc1CC(=O)NC1CC(C)(C)NC(C)(C)C1`, the “activity change, negative = inhibition” value was inactive: 6.5%. For `CC(C)(C)Nc1nc(Cl)nc(Nc2ccccc2)n1`, the Potency was inconclusive [inhibitor, single point]. For `CC(=NNc1ccccc1)C(C)=NNc1ccccc1`, the Potency was inconclusive [inhibitor, partial curve, poor fit]. With `COC(=O)c1ccccc1NC(=O)CCc1ccccc1` the Potency was inconclusive [inhibitor, single point]. In the case of `O=C(Cc1ccc(Nc2nc3ccc(Br)cc3[nH]2)cc1)NCCc1cccs1`, the Potency is reported as inconclusive [inhibitor, partial curve, poor fit]. With `Cc1nnc(SCC(=O)NC2CCCC(C)C2C)n1N` (centres undefined) the “activity change, negative = inhibition” value was inactive: -11.7%. With `O=C(Nc1c(C(=O)N2CCN(c3ccccn3)CC2)oc2ccccc12)c1ccc([N+](=O)[O-])cc1` the “activity change, negative = inhibition” value was inactive: 1.82%. In the case of `O=C(Nc1ccc(Cl)c(Cl)c1)c1cc(S(=O)(=O)N2CCN(c3cccc(Cl)c3)CC2)ccc1F`, the Potency is reported as inconclusive [inhibitor, partial curve, poor fit]. For `COc1ccc(OC(F)(F)F)cc1CC1(C)C(=O)Nc2ccc(-c3ccsc3)cc21` (centres undefined), the Potency was inconclusive [inhibitor, single point]. For `N#Cc1cccc(Nc2c3c(nc4ccccc24)CCC3)c1`, the Potency was inconclusive [inhibitor, single point]. With `Clc1ccc2nc(-c3ccccc3)c(Cc3ccccc3)n2c1` the Potency was inconclusive [inhibitor, full curve, poor fit]. `Cc1noc(C)c1C(=O)N1CCC1(C)C(=O)NS(=O)(=O)c1ccc(C#N)cc1` (centres undefined) was tested, and the “activity change, negative = inhibition” value was inactive: 15.3%. For `CCOC(=O)CN(C(=O)COc1nc(C)cc(C)c1C#N)c1ccc(Cl)cc1`, the Potency was inconclusive [inhibitor, partial curve, poor fit]. For `Cc1c(Cl)cccc1NC(=S)NCCc1ccc(Cl)cc1`, the Potency was inconclusive [inhibitor, single point]. In the case of `CCN(CC(=O)Nc1ccccc1C(F)(F)F)C(=O)c1oc2c(Cl)cccc2c1C`, the Potency is reported as inconclusive [inhibitor, partial curve, poor fit]. `COc1ccc(-c2cc(C)no2)cc1S(=O)(=O)N(C)c1ccc(C)c(C)c1` was tested, and the Potency was inconclusive [inhibitor, partial curve, poor fit].

— PubChem BioAssay AID624417 (National Center for Advancing Translational Sciences (NCATS), 2012)
Further: nearly all actives have a fitted effect of over 55% in size.
On the % scale 0 is the no-effect control and ±100 the full control effect; potency means the concentration at half of the fitted maximal effect; tags describe the fitted curve by direction and shape.
